Experimental data: US7173019B2, “Linked cyclitols and their polysulfated derivatives” (The Australian National University, priority 2001, dated 2007)
For part of these data: At least one read-out could not be matched to a standard name with certainty. Some results were stated once for a whole list of compounds, not compound by compound.

Key:
rat aorta fragments = assay: In vitro angiogenesis inhibition assay; assay type: cell-based; details: inhibitor 100 μg/ml, control 90
Procedure: The ability of linked cyclitol compounds to inhibit angiogenesis in vitro was conducted using the assay essentially as described in the present applicant's International Patent Application No. PCT/AU95/00105 (Publication No. WO 95/23968), the entire content of which is incorporated herein by cross reference. The only changes to the procedure described in PCT/AU95/00105 were that the assays were conducted using rat aorta fragments rather than human placental vessel fragments.
All potential inhibitors were tested at 100 μg/ml with PI-88 also being tested at 10 μg/ml. The tabulated data represent means of 4 culture wells for each experiment. Significant inhibition of angiogenesis is indicated with a single asterisk while double asterisks denote highly significant inhibition.
The compounds were also tested at the same purity as in Example 15 save that the second entries for 4b and 4j relate to data obtained with higher purity compounds than the compounds used for the first data entries of each.

[1] = molecular target: T1, human platelet heparanase (Homo sapiens, UniProt Q9Y251); assay: Heparanase inhibition, 3H-radiolabelled HS cleavage assay; assay type: biochemical; details: type 5 compound versus corresponding type 4 tetra-ene
T1 construct: 10 ng of purified human platelet heparanase; from tissue; host or cells: human platelets
T1 sequence (Q9Y251 158-543 limits assumed): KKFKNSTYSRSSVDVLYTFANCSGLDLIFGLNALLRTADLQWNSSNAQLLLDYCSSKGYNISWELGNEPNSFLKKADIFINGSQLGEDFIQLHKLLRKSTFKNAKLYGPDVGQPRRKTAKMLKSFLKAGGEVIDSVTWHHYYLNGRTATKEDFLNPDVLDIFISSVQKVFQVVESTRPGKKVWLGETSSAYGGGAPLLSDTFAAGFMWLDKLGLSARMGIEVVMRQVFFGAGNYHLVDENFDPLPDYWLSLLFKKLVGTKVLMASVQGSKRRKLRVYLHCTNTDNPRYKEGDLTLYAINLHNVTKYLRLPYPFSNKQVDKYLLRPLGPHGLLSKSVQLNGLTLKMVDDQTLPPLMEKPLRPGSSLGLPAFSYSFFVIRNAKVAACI
T1 sequence (Q9Y251 36-109 limits assumed): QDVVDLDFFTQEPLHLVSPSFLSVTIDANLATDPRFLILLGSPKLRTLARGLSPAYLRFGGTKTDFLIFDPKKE
Procedure: Briefly, to an incubation mixture of […] containing ^3H-radiolabelled porcine mucosal HS […], 50 mM-sodium acetate buffer, pH 5.0, […] bovine serum albumin and the inhibitor to be tested, was added 10 ng of purified human platelet heparanase and the mixture incubated for 30 min. The reaction was terminated by freezing the assay tubes. The substrate was separated from the cleavage products on minicolumns of sepharose-bound histidine-rich glycoprotein (Freeman, C., and Parish, C. R. [1997], supra).
Inhibitory activity is based on a comparison with heparin with 100% inhibition at 30 μg/ml. The compounds were also tested at the same purity as in Example 15.

[2] = means of 4 culture wells per experiment, * significant, ** highly significant inhibition

Compound | % Growth (rat aorta fragments; [2]) | % Growth (rat aorta fragments; second entry, higher purity compound, * significant inhibition) | fold better heparanase inhibitor than the tetra-ene it was derived from [1]
O=S(=O)(O)O[C@H]1[C@H](OS(=O)(=O)O)[C@@H](N(CCCN([C@H]2C=C[C@@H](OS(=O)(=O)O)[C@@H](OS(=O)(=O)O)[C@@H]2OS(=O)(=O)O)[C@H]2C=C[C@@H](OS(=O)(=O)O)[C@@H](OS(=O)(=O)O)[C@@H]2OS(=O)(=O)O)[C@H]2C=C[C@@H](OS(=O)(=O)O)[C@@H](OS(=O)(=O)O)[C@@H]2OS(=O)(=O)O)C=C[C@H]1OS(=O)(=O)O [Compound 4a] | 64* % | – | –
O=S(=O)(O)O[C@H]1[C@H](OS(=O)(=O)O)[C@@H](N(CCCCCCCCCCN([C@H]2C=C[C@@H](OS(=O)(=O)O)[C@@H](OS(=O)(=O)O)[C@@H]2OS(=O)(=O)O)[C@H]2C=C[C@@H](OS(=O)(=O)O)[C@@H](OS(=O)(=O)O)[C@@H]2OS(=O)(=O)O)[C@H]2C=C[C@@H](OS(=O)(=O)O)[C@@H](OS(=O)(=O)O)[C@@H]2OS(=O)(=O)O)C=C[C@H]1OS(=O)(=O)O [Compound 4c] | 56* % | – | –
O=S(=O)(O)O[C@H]1[C@H](OS(=O)(=O)O)[C@@H](N(CCN([C@H]2C=C[C@@H](OS(=O)(=O)O)[C@@H](OS(=O)(=O)O)[C@@H]2OS(=O)(=O)O)[C@H]2C=C[C@@H](OS(=O)(=O)O)[C@@H](OS(=O)(=O)O)[C@@H]2OS(=O)(=O)O)[C@H]2C=C[C@@H](OS(=O)(=O)O)[C@@H](OS(=O)(=O)O)[C@@H]2OS(=O)(=O)O)C=C[C@H]1OS(=O)(=O)O [Compound 4f] | 72% | – | –
O=S(=O)(O)O[C@H]1[C@H](OS(=O)(=O)O)[C@@H](N(CCCCN([C@H]2C=C[C@@H](OS(=O)(=O)O)[C@@H](OS(=O)(=O)O)[C@@H]2OS(=O)(=O)O)[C@H]2C=C[C@@H](OS(=O)(=O)O)[C@@H](OS(=O)(=O)O)[C@@H]2OS(=O)(=O)O)[C@H]2C=C[C@@H](OS(=O)(=O)O)[C@@H](OS(=O)(=O)O)[C@@H]2OS(=O)(=O)O)C=C[C@H]1OS(=O)(=O)O [Compound 4g] | 40** % | – | –
O=S(=O)(O)O[C@H]1[C@H](OS(=O)(=O)O)[C@@H](N(CCCCCCCN([C@H]2C=C[C@@H](OS(=O)(=O)O)[C@@H](OS(=O)(=O)O)[C@@H]2OS(=O)(=O)O)[C@H]2C=C[C@@H](OS(=O)(=O)O)[C@@H](OS(=O)(=O)O)[C@@H]2OS(=O)(=O)O)[C@H]2C=C[C@@H](OS(=O)(=O)O)[C@@H](OS(=O)(=O)O)[C@@H]2OS(=O)(=O)O)C=C[C@H]1OS(=O)(=O)O [Compound 4h] | 52* % | – | –
O=S(=O)(O)O[C@H]1[C@H](OS(=O)(=O)O)[C@@H](N(CCCCCCCCN([C@H]2C=C[C@@H](OS(=O)(=O)O)[C@@H](OS(=O)(=O)O)[C@@H]2OS(=O)(=O)O)[C@H]2C=C[C@@H](OS(=O)(=O)O)[C@@H](OS(=O)(=O)O)[C@@H]2OS(=O)(=O)O)[C@H]2C=C[C@@H](OS(=O)(=O)O)[C@@H](OS(=O)(=O)O)[C@@H]2OS(=O)(=O)O)C=C[C@H]1OS(=O)(=O)O [Compound 4i] | 50* % | – | –
O=S(=O)(O)O[C@H]1[C@H](OS(=O)(=O)O)[C@@H](N(CCCCCCCCCN([C@H]2C=C[C@@H](OS(=O)(=O)O)[C@@H](OS(=O)(=O)O)[C@@H]2OS(=O)(=O)O)[C@H]2C=C[C@@H](OS(=O)(=O)O)[C@@H](OS(=O)(=O)O)[C@@H]2OS(=O)(=O)O)[C@H]2C=C[C@@H](OS(=O)(=O)O)[C@@H](OS(=O)(=O)O)[C@@H]2OS(=O)(=O)O)C=C[C@H]1OS(=O)(=O)O [Compound 4j] | 68% | 56* % | –
O=S(=O)(O)O[C@H]1[C@H](OS(=O)(=O)O)[C@@H](N(CCCCCN([C@H]2C=C[C@@H](OS(=O)(=O)O)[C@@H](OS(=O)(=O)O)[C@@H]2OS(=O)(=O)O)[C@H]2C=C[C@@H](OS(=O)(=O)O)[C@@H](OS(=O)(=O)O)[C@@H]2OS(=O)(=O)O)[C@H]2C=C[C@@H](OS(=O)(=O)O)[C@@H](OS(=O)(=O)O)[C@@H]2OS(=O)(=O)O)C=C[C@H]1OS(=O)(=O)O [Compound 4k] | 51* % | – | –
O=S(=O)(O)OC(CN([C@H]1C=C[C@@H](OS(=O)(=O)O)[C@@H](OS(=O)(=O)O)[C@@H]1OS(=O)(=O)O)[C@H]1C=C[C@@H](OS(=O)(=O)O)[C@@H](OS(=O)(=O)O)[C@@H]1OS(=O)(=O)O)CN([C@H]1C=C[C@@H](OS(=O)(=O)O)[C@@H](OS(=O)(=O)O)[C@@H]1OS(=O)(=O)O)[C@H]1C=C[C@@H](OS(=O)(=O)O)[C@@H](OS(=O)(=O)O)[C@@H]1OS(=O)(=O)O [Compound 4l] | 75% | – | –
O=S(=O)(O)OC1C(OS(=O)(=O)O)C(OS(=O)(=O)O)C(N(CCCCCCN(C2C(OS(=O)(=O)O)C(OS(=O)(=O)O)C(OS(=O)(=O)O)C(OS(=O)(=O)O)C2OS(=O)(=O)O)C2C(OS(=O)(=O)O)C(OS(=O)(=O)O)C(OS(=O)(=O)O)C(OS(=O)(=O)O)C2OS(=O)(=O)O)C2C(OS(=O)(=O)O)C(OS(=O)(=O)O)C(OS(=O)(=O)O)C(OS(=O)(=O)O)C2OS(=O)(=O)O)C(OS(=O)(=O)O)C1OS(=O)(=O)O (stereo not drawn) [Compound 5b] | 50* % | – | more than 2 fold
O=S(=O)(O)OC1C(OS(=O)(=O)O)C(OS(=O)(=O)O)C(N(CCCCCCCCCCN(C2C(OS(=O)(=O)O)C(OS(=O)(=O)O)C(OS(=O)(=O)O)C(OS(=O)(=O)O)C2OS(=O)(=O)O)C2C(OS(=O)(=O)O)C(OS(=O)(=O)O)C(OS(=O)(=O)O)C(OS(=O)(=O)O)C2OS(=O)(=O)O)C2C(OS(=O)(=O)O)C(OS(=O)(=O)O)C(OS(=O)(=O)O)C(OS(=O)(=O)O)C2OS(=O)(=O)O)C(OS(=O)(=O)O)C1OS(=O)(=O)O (stereo not drawn) [Compound 5c] | 60* % | – | –
O=S(=O)(O)OC1C(OS(=O)(=O)O)C(OS(=O)(=O)O)C(N(Cc2cccc(CN(C3C(OS(=O)(=O)O)C(OS(=O)(=O)O)C(OS(=O)(=O)O)C(OS(=O)(=O)O)C3OS(=O)(=O)O)C3C(OS(=O)(=O)O)C(OS(=O)(=O)O)C(OS(=O)(=O)O)C(OS(=O)(=O)O)C3OS(=O)(=O)O)c2)C2C(OS(=O)(=O)O)C(OS(=O)(=O)O)C(OS(=O)(=O)O)C(OS(=O)(=O)O)C2OS(=O)(=O)O)C(OS(=O)(=O)O)C1OS(=O)(=O)O (stereo not drawn) [Compound 5d] | – | – | more than 2 fold
O=S(=O)(O)OC(CN([C@H]1[C@H](OS(=O)(=O)O)[C@H](OS(=O)(=O)O)[C@@H](OS(=O)(=O)O)[C@@H](OS(=O)(=O)O)[C@@H]1OS(=O)(=O)O)[C@H]1[C@H](OS(=O)(=O)O)[C@H](OS(=O)(=O)O)[C@@H](OS(=O)(=O)O)[C@@H](OS(=O)(=O)O)[C@@H]1OS(=O)(=O)O)CN([C@H]1[C@H](OS(=O)(=O)O)[C@H](OS(=O)(=O)O)[C@@H](OS(=O)(=O)O)[C@@H](OS(=O)(=O)O)[C@@H]1OS(=O)(=O)O)[C@H]1[C@H](OS(=O)(=O)O)[C@H](OS(=O)(=O)O)[C@@H](OS(=O)(=O)O)[C@@H](OS(=O)(=O)O)[C@@H]1OS(=O)(=O)O [Compound 5l] | – | – | more than 2 fold
